The values below come from paper PMC6919601, “Identification of Plasmodium dipeptidyl aminopeptidase allosteric inhibitors by high throughput screening” (PLoS ONE, 2019).

The campaign covered roughly 110,000 compounds. About 230 (0.21%) showed an effect of 50% or more. This is one part of the list.
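Note: 30 min substrate incubation versus DMSO and 10 µM JCP410 controls.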

The target in this experiment is DPAP1 (Plasmodium falciparum, UniProt Q8IIJ9). In words: primary screen, percent inhibition; read by cleavage of a fluorogenic dipeptide substrate; higher = more effect of the substance. More on the design: species or system P. falciparum D10 trophozoite lysates; single well.
DPAP1, sequence (Q8IIJ9 whole entry, looked up): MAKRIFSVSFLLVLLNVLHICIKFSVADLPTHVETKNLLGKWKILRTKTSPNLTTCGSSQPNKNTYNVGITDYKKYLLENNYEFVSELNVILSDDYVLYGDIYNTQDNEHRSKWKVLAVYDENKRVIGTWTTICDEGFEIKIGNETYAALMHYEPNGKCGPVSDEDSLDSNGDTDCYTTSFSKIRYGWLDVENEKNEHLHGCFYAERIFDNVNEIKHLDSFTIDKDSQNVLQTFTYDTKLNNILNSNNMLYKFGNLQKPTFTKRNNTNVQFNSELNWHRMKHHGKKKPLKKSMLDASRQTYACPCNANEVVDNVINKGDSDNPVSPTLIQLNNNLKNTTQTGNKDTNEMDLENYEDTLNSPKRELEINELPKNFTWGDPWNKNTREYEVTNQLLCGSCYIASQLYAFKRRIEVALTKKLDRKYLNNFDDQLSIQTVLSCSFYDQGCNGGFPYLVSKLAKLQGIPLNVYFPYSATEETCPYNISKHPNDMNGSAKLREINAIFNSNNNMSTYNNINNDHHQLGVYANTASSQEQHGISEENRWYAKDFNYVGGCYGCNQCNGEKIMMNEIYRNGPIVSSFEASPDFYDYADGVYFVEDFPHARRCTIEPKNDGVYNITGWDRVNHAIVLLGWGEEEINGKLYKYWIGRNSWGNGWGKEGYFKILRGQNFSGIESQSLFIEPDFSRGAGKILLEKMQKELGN
With `COc1cc(C(=O)N(Cc2ccco2)Cc2ccccc2Cl)cc(OC)c1OC`, the “% Inhibition @ 10 uM” value is on record as -5.91%.

Regarding `COc1ccc(-c2cccc(C(CC(C)C)C(=O)NCC#N)c2)cc1[SH+](O)(O)N1CCN(CCO)CC1` (centres unmarked), the “% Inhibition @ 10 uM” value amounted to 1.7%.

`COCCN1C(=O)/C(=C/c2ccc(OC)cc2)S/C1=N\c1ccccc1`: the “% Inhibition @ 10 uM” value is reported as -1.22%.

On to `Cc1ccc(CC2CC(=O)N(c3nc(C)cc(C)n3)C2=O)cc1` (centres unmarked), for which the “% Inhibition @ 10 uM” value was 0.415%.

With `Cc1ccsc1CN(C(=O)c1ccccc1)C1CCS(=O)(=O)C1` (centres unmarked), the “% Inhibition @ 10 uM” value was -2.85%.

For the compound `CCC1CCC(N(C)C2CCN(C)CC2)CC1` (centres unmarked), the “% Inhibition @ 10 uM” value is on record as -1.21%.

With `CC(NC(=O)Cc1ccccc1)c1ccc(Cl)c(Cl)c1` (centres unmarked), the “% Inhibition @ 10 uM” value was 0.00773%.

For the compound `CN(C)c1ccc(-c2cc(-c3ccccc3)[nH]n2)cc1`, the “% Inhibition @ 10 uM” value was -1.91%.

As for `CC[C@H](C)[C@H](NC(=O)c1cccc(CN)c1)C(=O)N[C@@H](CCc1ccccc1)CNS(=O)(=O)c1ccc2oc3ccccc3c2c1`, the “% Inhibition @ 10 uM” value is reported as 10.2%.

For `COC(=O)c1cccc(-n2c(C)cc(/C=C3/NC(=O)N(Cc4ccc(F)cc4)C3=O)c2C)c1`, the “% Inhibition @ 10 uM” value is given as -3.33%.

Consider `COC(=O)c1ccc(C2C=C(c3ccccc3)Nc3ncnn32)cc1` (centres unmarked), for which the “% Inhibition @ 10 uM” value was -7.18%.

In the case of `Fc1ccc2c(c1)CN(c1ccccc1F)CO2`, the “% Inhibition @ 10 uM” value is on record as -2.2%.

As to `O=C(Nc1ccc(Oc2ccccc2)cc1)c1ccc2c(c1)OCO2`, the “% Inhibition @ 10 uM” value is on record as -0.545%.

For `Cc1cc(-c2nnc(S)n2Cc2ccco2)n(C)n1`, the “% Inhibition @ 10 uM” value is on record as 5.52%.

On to `Cc1noc(/C=C/N(C)C)c1S(=O)(=O)N(C)Cc1ccc2c(c1)OCO2`, for which the “% Inhibition @ 10 uM” value is recorded as 4.61%.

For `NC(=O)C1CCCN(Cc2cc(F)ccc2F)C1` (centres unmarked), the “% Inhibition @ 10 uM” value is reported as -1.21%.

In the case of `Cc1c(Cc2ccccc2)c(=O)oc2cc(O)ccc12`, the “% Inhibition @ 10 uM” value was determined as 2.6%.

`CCSc1sc(CC)cc1C1C2=C(O)CCCC2=NC(C)=C1C(=O)OC` (centres unmarked): the “% Inhibition @ 10 uM” value was -3.06%.

Consider `Cc1ccc(OCCCN2CCCCC2)c(C(C)(C)C)c1`, for which the “% Inhibition @ 10 uM” value stood at 4.26%.

Take `O=C(C1CCN(S(=O)(=O)c2ccc3[nH]c4c(c3c2)CCCCC4)CC1)N1CCc2ccccc2C1`: the “% Inhibition @ 10 uM” value was -1.7%.

Consider `COc1ccccc1OCC(=O)Nc1ccc(Br)c(Cl)c1`, for which the “% Inhibition @ 10 uM” value is -2.19%.

Consider `CC(=O)c1cccc(NC(=O)C(C)Oc2ccc(C(C)(C)C)cc2)c1` (centres unmarked), for which the “% Inhibition @ 10 uM” value amounted to 3.79%.

As to `CC(NC(=O)c1ccc(Br)o1)C1CC2CCC1C2` (centres unmarked), the “% Inhibition @ 10 uM” value was found to be 2.42%.

With `Sc1nnc2c3c4c(sc3n3c(S)nnc3n12)CCCCC4`, the “% Inhibition @ 10 uM” value came out at 0.0069%.

Consider `C=CCSc1nc(N)c(C#N)c(-c2ccccc2)c1C#N`, for which the “% Inhibition @ 10 uM” value is given as 4.33%.

Take `Fc1c(F)c(F)c2c(N3CCOCC3)c3ccccc3nc2c1F`: the “% Inhibition @ 10 uM” value was determined as 7.16%.

For `CCN1C(=O)N/C(=C\c2cc(C)n(-c3ccc(Br)cc3)c2C)C1=O`, the “% Inhibition @ 10 uM” value is on record as 2.73%.

As to `C=CCOc1c(CNc2nc[nH]n2)cccc1OC`, the “% Inhibition @ 10 uM” value amounted to 0.324%.

As for `COc1ccc(-n2cnc3ccccc32)cc1`, the “% Inhibition @ 10 uM” value is given as -4.03%.

For the compound `CCC(Oc1ccccc1)C(=O)Nc1cc(C)cc(C)c1` (centres unmarked), the “% Inhibition @ 10 uM” value is recorded as -0.0938%.

In the case of `Cc1cc(C)c2c(n1)SCC(=O)N2CC(=O)NCCN(C)C1CCCCC1`, the “% Inhibition @ 10 uM” value came to 1.03%.

For the compound `CC1=CC(=O)C=C(C)C1=NS(=O)(=O)c1ccccc1`, the “% Inhibition @ 10 uM” value was -0.053%.

With `CCOc1ccc(/C=C2\N=C(c3cc(Br)ccc3OC)OC2=O)cc1`, the “% Inhibition @ 10 uM” value was 3.26%.

Consider `CCN1CCCC1CNC(=O)Cn1ncc2c3ccccc3nc-2c1O` (centres unmarked), for which the “% Inhibition @ 10 uM” value is -1.71%.

Consider `CC1(C)CC(=O)C2=C(C1)NC(=O)CC2c1ccccc1OCc1ccccc1` (centres unmarked), for which the “% Inhibition @ 10 uM” value was -5.88%.

Turning to `Cc1cc(NC(=O)CN2CCN(C(=O)c3ccco3)CC2)c2ccccc2n1`, the “% Inhibition @ 10 uM” value is reported as -9.29%.

Regarding `Cc1ccc(S(=O)(=O)c2nnn(-c3ccccc3C(F)(F)F)c2N)cc1`, the “% Inhibition @ 10 uM” value is -3.47%.

In the case of `Cc1ccnc2nc(NC(=O)Cc3ccccc3)nn12`, the “% Inhibition @ 10 uM” value is given as -4.91%.

`CCCN1C(=O)c2ccc(C(=O)Nc3ccccc3C(=O)O)cc2C1=O`: the “% Inhibition @ 10 uM” value was -2.83%.

Regarding `O=c1[nH]c(=S)[nH]c2sc3c(c12)CCC1(CCCCC1)C3`, the “% Inhibition @ 10 uM” value is recorded as 5.93%.

As to `CC(NC(=O)Cc1cccs1)c1ccccc1` (centres unmarked), the “% Inhibition @ 10 uM” value was -5.88%.

On to `COc1ccc(-c2c(-c3ccccc3)s/c(=N\C(=O)c3cccnc3)n2C)cc1`, for which the “% Inhibition @ 10 uM” value is on record as 5.97%.

With `Cc1ccc2[nH]c(-c3ccc([N+](=O)[O-])cc3)nc2c1`, the “% Inhibition @ 10 uM” value was found to be 1.13%.

For the compound `COc1ccc(-n2c(S)nnc2CNC(=O)c2ccc(S(=O)(=O)N(C)C)cc2)cc1`, the “% Inhibition @ 10 uM” value worked out at 10.9%.

`CC(C)CC(C(=O)NCc1ccccc1)N1Cc2ccccc2C1=O` (centres unmarked): the “% Inhibition @ 10 uM” value is recorded as 0.0322%.

For the compound `CCC(C)NC(=O)Cn1nc(C)n2c(cc3c(OC)cccc32)c1=O` (centres unmarked), the “% Inhibition @ 10 uM” value is -1.7%.

In the case of `Cn1ncc(Br)c1C(=O)NCc1ccccc1`, the “% Inhibition @ 10 uM” value is reported as 1.76%.

`COC(=O)C1=CNC=C(C(=O)OC)C1c1cc(Br)ccc1OC`: the “% Inhibition @ 10 uM” value is recorded as -1.46%.

For the compound `CC(CCc1ccccc1)NC(=O)c1nnc(Cc2ccc(Cl)cc2)o1` (centres unmarked), the “% Inhibition @ 10 uM” value was -2.8%.

In the case of `Cc1ccc(C)c(OCC(=O)Nc2cccnc2Cl)c1`, the “% Inhibition @ 10 uM” value was -6.92%.

For the compound `COc1ccc(Br)cc1CN1CCN(C(=O)c2ccccc2F)CC1`, the “% Inhibition @ 10 uM” value is on record as 0.587%.

Regarding `COCCN(CCOC)c1ncnc2c1cnn2C`, the “% Inhibition @ 10 uM” value is recorded as -0.247%.

As for `Cc1ccc(S(=O)(=O)Nc2cncc(C(=O)NCc3ccccc3)c2)cc1`, the “% Inhibition @ 10 uM” value is -0.546%.

On to `CCN(Cc1ccccc1)C(=O)C(NC(=O)C1CCC(C)CC1)C(C)C` (centres unmarked), for which the “% Inhibition @ 10 uM” value is listed as -8.18%.

`CCC(N)C(=O)c1ccc(F)cc1` (centres unmarked): the “% Inhibition @ 10 uM” value is on record as -4.27%.

As to `Cc1ccccc1OCC(=O)Nc1ccccc1Br`, the “% Inhibition @ 10 uM” value was -2.65%.

As for `O=C(c1ccc2nc(N3CCCCC3)sc2c1)N1CCC2(CC1)OCCO2`, the “% Inhibition @ 10 uM” value was determined as 2.45%.

In the case of `Cc1c(C(=O)N(C)Cc2ccccc2)sc2ncn(CC(=O)N3CC(C)CC(C)C3)c(=O)c12` (centres unmarked), the “% Inhibition @ 10 uM” value is reported as -2.17%.

For `Cc1c(N(C(=O)c2cc(-c3ccccc3)nc3ccccc23)C(C)C)c(=O)n(-c2ccccc2)n1C`, the “% Inhibition @ 10 uM” value was determined as 1.8%.

`CCN(CC)CCNC(=O)CCN1N=C(c2ccccc2)CCC1=O`: the “% Inhibition @ 10 uM” value is listed as -0.971%.

On to `C=CCSc1ncc(Cl)c(C(=O)NCCc2ccc(S(N)(=O)=O)cc2)n1`, for which the “% Inhibition @ 10 uM” value is -2.71%.

Turning to `CC(=O)C1=C(C)NC(=O)NC1c1ccc(Cl)cc1` (centres unmarked), the “% Inhibition @ 10 uM” value is listed as -1.5%.

Turning to `COc1ccc(/C=C/c2ccc([N+](=O)[O-])cc2)cc1`, the “% Inhibition @ 10 uM” value turned out to be 1.29%.

`CC(NC(=O)C(C)N1C(=O)c2ccccc2C1=O)c1ccccc1` (centres unmarked): the “% Inhibition @ 10 uM” value was found to be 3.47%.

Consider `Cc1ccc(C(=O)Nc2ccc3ccc4cccnc4c3n2)cc1`, for which the “% Inhibition @ 10 uM” value was 0.324%.
